Consider 3 substances from paper PMC5089861.

Amino acid sequences for entries named in this document (tags omitted). A change or cut given only in a name is not applied to a line headed by its entry.
UniProt G5E8K5: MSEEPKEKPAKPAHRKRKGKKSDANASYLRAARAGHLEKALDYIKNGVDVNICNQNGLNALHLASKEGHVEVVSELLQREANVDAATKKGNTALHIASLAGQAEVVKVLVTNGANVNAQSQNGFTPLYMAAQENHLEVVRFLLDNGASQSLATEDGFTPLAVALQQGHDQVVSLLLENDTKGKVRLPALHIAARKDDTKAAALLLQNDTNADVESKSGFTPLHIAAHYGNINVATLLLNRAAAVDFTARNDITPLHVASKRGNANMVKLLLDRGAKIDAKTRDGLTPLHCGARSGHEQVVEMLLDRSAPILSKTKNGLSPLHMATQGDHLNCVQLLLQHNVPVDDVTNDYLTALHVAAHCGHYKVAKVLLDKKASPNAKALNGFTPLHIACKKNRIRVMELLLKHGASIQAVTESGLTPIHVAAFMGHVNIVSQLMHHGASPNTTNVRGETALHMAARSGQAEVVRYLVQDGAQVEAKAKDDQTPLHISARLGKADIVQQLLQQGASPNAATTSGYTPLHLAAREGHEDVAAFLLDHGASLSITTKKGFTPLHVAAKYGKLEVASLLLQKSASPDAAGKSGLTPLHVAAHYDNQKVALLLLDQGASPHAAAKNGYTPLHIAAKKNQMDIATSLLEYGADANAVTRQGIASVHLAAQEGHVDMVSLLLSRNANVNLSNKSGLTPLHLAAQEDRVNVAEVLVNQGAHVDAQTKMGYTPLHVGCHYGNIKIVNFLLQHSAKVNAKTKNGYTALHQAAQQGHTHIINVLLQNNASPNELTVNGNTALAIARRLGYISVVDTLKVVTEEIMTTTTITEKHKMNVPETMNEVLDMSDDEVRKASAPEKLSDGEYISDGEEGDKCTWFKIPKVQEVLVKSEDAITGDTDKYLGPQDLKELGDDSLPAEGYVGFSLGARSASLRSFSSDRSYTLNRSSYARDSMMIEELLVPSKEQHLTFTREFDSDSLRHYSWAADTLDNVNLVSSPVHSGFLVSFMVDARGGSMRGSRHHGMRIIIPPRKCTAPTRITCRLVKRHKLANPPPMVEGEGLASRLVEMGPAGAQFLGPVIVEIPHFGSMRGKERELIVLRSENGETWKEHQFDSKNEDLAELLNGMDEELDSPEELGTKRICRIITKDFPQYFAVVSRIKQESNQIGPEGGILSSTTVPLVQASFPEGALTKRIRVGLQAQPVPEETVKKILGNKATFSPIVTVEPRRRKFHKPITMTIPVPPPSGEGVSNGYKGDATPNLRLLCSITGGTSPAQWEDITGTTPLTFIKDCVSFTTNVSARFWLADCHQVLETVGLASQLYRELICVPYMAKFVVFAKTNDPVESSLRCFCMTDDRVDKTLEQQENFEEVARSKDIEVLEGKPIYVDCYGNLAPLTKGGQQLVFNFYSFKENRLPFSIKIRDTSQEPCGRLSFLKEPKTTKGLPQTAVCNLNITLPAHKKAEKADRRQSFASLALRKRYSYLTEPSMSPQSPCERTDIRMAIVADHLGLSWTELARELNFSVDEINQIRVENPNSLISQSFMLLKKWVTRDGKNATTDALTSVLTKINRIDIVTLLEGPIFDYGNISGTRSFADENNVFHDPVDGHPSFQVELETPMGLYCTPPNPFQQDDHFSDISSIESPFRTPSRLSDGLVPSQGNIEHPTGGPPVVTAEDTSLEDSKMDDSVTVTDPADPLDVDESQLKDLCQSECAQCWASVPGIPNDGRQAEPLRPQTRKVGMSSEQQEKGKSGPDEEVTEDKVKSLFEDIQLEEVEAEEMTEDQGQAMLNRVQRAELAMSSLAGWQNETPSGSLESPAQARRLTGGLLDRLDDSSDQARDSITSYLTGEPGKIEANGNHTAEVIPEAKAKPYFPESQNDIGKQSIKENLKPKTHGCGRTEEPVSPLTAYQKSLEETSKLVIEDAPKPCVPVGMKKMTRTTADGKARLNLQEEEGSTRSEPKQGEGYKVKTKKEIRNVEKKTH

In experiment [1] the target is T1, AnkB death domain E1537K, GAL4 DNA-BD bait (human) (UniProt Q01484).
T1 sequence: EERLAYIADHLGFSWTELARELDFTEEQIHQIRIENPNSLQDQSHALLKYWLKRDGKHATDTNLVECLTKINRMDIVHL
In words: two-hybrid; AnkB DD wild-type or mutant baits (pGBKT7) with RabGAP1L C-terminal domain in pGADT7; plates -Leu, -Trp, -His, -Ade with 125 ng/ml Aureobasidin A.

The target of experiment [2] is T2, AnkB death domain (aa1485-1563), GAL4 DNA-BD bait (human) (UniProt Q01484).
T2 sequence: T1 sequence with K53E
Described as above.

Experiment [3] has as its target full-length endogenous AnkG of mouse embryonic fibroblasts (mouse (endogenous in MEFs)) (UniProt G5E8K5). In words: co-IP; endogenous proteins from WT MEF lysates (PBS, 150 mM NaCl, 0.32 M sucrose, 2 mM EDTA, 0.1% Triton X-100, 0.1% sodium deoxycholate, 0.1% SDS); antibodies against AnkB, AnkG, RabGAP1L or control IgG; Western blot.
Experiment [4] deals with total AnkB in brain and skeletal muscle of PND30 mice (mouse (endogenous in brain and skeletal muscle)) (UniProt Q8C8R3). Description: proximity ligation; Duolink kit on deparaffinized sections of PND30 mouse brain and skeletal muscle, antibodies against total AnkB and RabGAP1L.
Another experiment deals with full length WT AnkB-HA (UniProt Q01484). In words: co-IP; HEK293 cells transfected with both plasmids, lysed in 0.5% Triton X-100, 10 mM sodium phosphate, 0.32 M sucrose, 2 mM EDTA; mouse anti-HA or rabbit anti-GFP with protein A/G Dynabeads; Western blot.
In experiment [5] the target is full length E1537K AnkB-HA (UniProt Q01484). Described as above.

Substitutions are numbered along the chain they refer to. These are yes or no findings as the source states them, for the method shown. For part of these data: Binding seen in cells or lysates may run through a third protein. Some entries that bind do so weakly or less than the wild type. For part of these data: Sequences can lack the tags named with a protein.

For the substance “RabGAP1L TBC-C-terminal domain (residues E507-L815), pGADT7 prey (from UniProt A6H6A9 507-815) (domain or fragment)”, the values for the binding entry in experiment [1] and in experiment [2] were “no binding” and “binds”, respectively.

Turning to “endogenous RabGAP1L (93 kDa), mouse (from UniProt A6H6A9 1-815)”, the figures for the binding result in experiment [3] and in experiment [4] were “no binding” and “binds”, respectively.

Consider “WT RabGAP1L-GFP (from UniProt A6H6A9 1-815)”, for which the binding result with full length WT AnkB-HA is listed as “binds”; in experiment [5], “no binding”.
